# Some structures have more than one record in an assay (separate samples or runs), and their calls can disagree.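 Percent growth is the endpoint: 0 to 100 indicates growth inhibition (40 means 60% inhibition), 0 means no net growth, and negative values indicate cell death.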 Some entries of the source have several records that differ or are many. The list is limited to them. How the source made its calls: active means growth percent below 10; inactive means the rest. The source may hold further records. These are repeated runs of one drug, at its own concentration, as given; one value stands for one run. Additions like (4×) stand for listed records that agree.
# Tested on: HOP-62 NSCLC
# Assay: NCI-60 one-dose screen, 48 h (100 = growth as untreated, 0 = no growth, -100 = all killed)
compound,measurement,setting,value
COc1cccc2c1C(=O)c1c(O)c3c(c(O)c1C2=O)C[C@@](O)(C(=O)CO)C[C@@H]3OC1CC(N)C(O)C(C)O1 (stereo not given in full),growth,"0.25 µM, runs of 2015","inactive: 19.8, 23 (2×), 23.5, 24.1, 20.7, 22.8 (2×), 31.1, 30.9, 29.2 (2×), 30.1, 24.4 (2×), 28.2 (2×), 28.6, 19.5, 21, 34, 25.7, 11.4, 15.8, 19.9, 16.2, 13.4, 25.1, 17.4, 11.9, 18, 20.6, 13.6, 25 (2×), 27.2, 28.9 (3×), 29.4, 29.6, 25.2 (2×), 12.5, 21.2, 17.5, 16.6, 13.5, 10.1, 18.2, 22.2 (2×), 24.2, 38.8, 29 (2×), 24.7 (3×), 27.6, 36.2 (2×), 41, 26.9, 29.8, 25.9, 21.6, 19.3, 13.9, 16.8, 15.9, 12.2, 25.5, 20.9, 17, 28.7, 38.1, 18.7, 23.1% and active: 2.33, -3.76, 4.5, 5.28, 6.44, 7.41%"
same,growth,"0.25 µM, runs of 2016","inactive: 26.7, 25.5, 21.2, 27.4 (3×), 25.2, 26.6 (2×), 31.4, 14, 17.3, 14.8, 14.4, 20.9, 16.3, 22.4, 10.7, 15.5, 15.3, 20.3, 18.8, 17, 19.9, 30.1, 30.8, 29.5, 25.4 (2×), 22.8, 23.9, 25.9, 26.3 (2×), 34.1, 11.9, 21.1, 17.6, 28.8, 14.2, 16, 13.5, 29.6, 24.2 (2×), 26.8, 23.7, 18.7, 21.3, 22.1, 23.3, 29.4, 22.5, 32.8, 27.1, 25.7, 30.6, 23.8, 29.7, 26.9, 30.3, 38, 26.4 (2×), 27 (2×), 32.4 (2×), 37.5, 33.7, 30.4, 29.8, 29.3, 34.9, 28.4, 27.2% and active: 9.53, 9.87, 7.41, 8.5%"
same,growth,"0.25 µM, runs of 2017","inactive: 24.8 (2×), 31.1, 33.2, 12.7, 12.4, 15 (2×), 11, 11.9, 22.3, 14, 17.7, 21.3 (2×), 18.6, 13.6, 14.1, 12, 10.8, 13, 16.6, 18.9 (2×), 15.7, 25.3, 26.6, 29.7, 21.5, 27.9, 33, 16, 18.4, 29, 20.9 (2×), 22.7, 22, 13.5, 17.2, 21.9, 10.7, 14.3, 11.6, 16.5 (3×), 10.1, 18.1, 19.2, 25.1, 15.5, 16.2, 15.1, 20.6, 18.2, 20.7, 18.7, 10.6, 12.6, 11.4, 14.5, 12.2, 13.2% and active: 9.91, -2.4, 8.29, 7.66, 2.44, 8.79, 7.06, -1.81, 9.54, 8.59, 3.98, 9.99, 9%"
same,growth,"0.25 µM, runs of 2018","active: 8.94, 8.76, 9.84, 7.37, 5.8, 6.21% and inactive: 16.2, 12.4, 17.6, 16.8, 15.3, 19.7, 18.2, 18.6 (2×), 23.4, 32.9, 34.3, 32, 39.1, 29.6, 33.6 (2×), 23.3, 15.8, 19.6, 12.9, 12.1, 24.5, 24.1, 10.7, 14.9, 21.1, 21 (2×), 17.4, 18, 14.5, 24.8, 28.9 (2×), 29, 27.9, 31.9, 19.1, 21.5, 17.5, 12.6%"
same,growth,"0.25 µM, runs of 2019","inactive: 18.4, 11.7, 15.9, 24.9, 24.4, 39.1, 35.5, 34.9, 32.6, 23.4, 18.8, 12, 19.2 (2×), 15.7, 16.5, 16.3, 20.1, 25.4, 24, 31.7, 22.2, 33.9, 33.2, 22.5, 17.3, 12.2, 12.3, 11.3 (2×), 14.7, 11 (2×), 19.4, 19.8, 14.2, 15.5, 10.6, 21.6, 17.1, 17.6% and active: 6.54, 3.28, 7.09, 2.56, -7.14, 9.71%"
same,growth,"0.25 µM, runs of 2020","inactive: 25.7, 31.5, 26.9, 32, 21.6, 17.6, 17.7, 20.7, 20.4, 14.1, 16.6, 22, 17.9, 27.7, 28.4, 17.4, 23.7, 34.3, 29.8, 33.2, 28.1, 18.8, 20.9, 23.6%"
same,growth,"0.25 µM, runs of 2021","inactive: 23.9, 28.7, 21.2, 22 (3×), 35.6, 19.5, 26.7, 22.3, 17.4, 22.8, 18.8, 20.4, 13.7, 17.3, 13.1 (2×), 19.4, 10.1, 25.9, 26.8, 27.2 (2×), 13.3, 18.7, 23, 13.8, 10.7, 11.5, 19.9, 18.2, 16.7, 22.4, 14, 11.6, 13.4, 25.5% and active: 8.45, 9.85, 6.57, 6.38, 9, 4.22, 8.41, 6.64, 7.37, 7.61, 8.11, 4.76, 2.88, 0.731, -2.84, 8.09%"
same,growth,"0.25 µM, runs of 2022","active: -14.8, -9.62, -4.55, 5.93, 9.15, 1.91% and inactive: 30.9, 37.5, 14.3, 12.9, 27.2, 27.9, 24.4, 22.1, 20.3, 17.5, 11.3, 11.5, 39.4, 50.1, 23.2, 31.3, 31.4, 54.5, 13.3, 12.1, 13.8, 13.5, 23.7%"
same,growth,"25 µM, runs of 1991","active: -24.1, -40.7, -31.8, -52.4, -37.7, -42.6, -39.2, -55.3, -38.6, -12.6, -30.1, -42.3, -36.3, -44.7, -27.5, -46.2, -49.7% and inactive: 97.6%"
same,growth,"25 µM, runs of 1992","active: -29.7, -48.7, -64.7, -44.7 (2×), -38.8, -36.9, -54.7 (2×), -22.5, -36.8, -22.4, -55.5, -53.3, -58, -38, -42.2, -38.1, -37.5, -26.4, -35.8, -33.1, -50.3, -65.1, -61.7, -50.9, -47.3, -60.4, -63.6, -84.1, -50.2, -29.6, -45.1, -76.7, -58.1, -18.4, -52, -57.9, -56.6, -42.8, -40.8, -39.4 (2×), -45.4 (2×), -68.8, -40.9, -48.3 (2×), -51.9, -40.5, -16.3, -40.3 (2×), -58.4, -38.6, -47.9, -55.7, -53.2, -28.4, -43.6 (2×), -51, -54.4, -47, -46.9 (2×), -49.6, -52.1 (2×), -71, -30.3 (2×), -54 (2×), -20.7, -51.3 (2×), -31.4, -47.5, -32.7, -38.7, -65.6, -60.7, -79.1, -81.2, -52.7, -21.8, -51.4, -44.2, -40.2, -34.5, -61.8, -42.7, -35, -71.7, -84.6, -84.3, -64.2, -27.3, -53.1, -62.1, -70.5, -42.4, -39.1, -29.3, -55.8, -29.8, -46.2, -62.9, -68.6, -72.1, -19.1, -74.5, -66, -20.9, -59.7% and inactive: 13.9%"
same,growth,"25 µM, runs of 1993","active: -24.4, -22.9, -58.9 (2×), -47.3, -51.4, -62.6, -28, -41.4, -67.7, -34.1, 6.3, -18.4, -15.2, -58.2, -22.5, -0.907, -20.8, -58.1, -23.3, -44.1, -12.8, -24.1, -23.4, -33.2, -70.4, -50.5, -25.9, -57.1, -29.7, -57.5, -35.1, -52.3, -37.8 (2×), -32.8, -52, -38.4, -18.9, -15.6, -50.8, -42.1, -65.2, -45.1, -67.2, 4.44, -32.9, -65.6%"
same,growth,"25 µM, runs of 1994","active: -33.3, -55.2 (2×), -20.7, -26.3, -50, -33.4, -57.8, -29.4, -37.7, -41.7, -43.1, -25, -34.6, -8.82, -18.7, -39.3, -44.8, -66.3, -36.2, -37.3, -65.9, -25.3, -22.9, -17.2, -62.5, -10.2, -23.7, -46, -3.18, -96.7, -31.5% and inactive: 87.7%"
same,growth,"25 µM, runs of 1995","active: -8.76, -10.4, -40.8, -59, -57.6, -22.2 (2×), -36.1, -32.9, 6.09, -53.6, -17.9, -6.21, -30.5, -31.8, -23, -42.2, -34.5, -64, -42.3, -37.3 (2×), -57.4, -23.8, -22, -34.6, -34, 2.01, -50.9, -44.9, -34.9, -48.7, -37.4, -53.7, -69, -60.8, -52.8%"
same,growth,"25 µM, runs of 1996","active: -18.3, -34.9, -25.8, -15.8, -4.63, -11.6, -2.46, -21, -7.87, -23.9, -12.8, -18.8, -19.1, -28.4, -36.3, -32.9, -17.5, -23.6, 2.03, -14, -16.8, -31.8, -59, -34.1, -6.46, -23.7, -55.9, -10.7, -31.4, -32.7, -16.7, -30.9, -25.5 (2×), -24.5, -45.2, -47.6, -35.7, -34.3, -34.5, -36.1, -65.6, -25.9, -2.53, 3.89, -23, -46.5, -20.7, -27.9, -15, -12.7% and inactive: 45.3%, 98.3%, 20.1%"
same,growth,"25 µM, runs of 1997","active: -9.79, 3.41, -16.4, -23.3, -5.84, -19.3, -24.3, -16.3, -18, -35.7, -20.9, -30.6, -33.3, -46.6, -24.5, -22.7, -29.2, -26.2, -28.6, -17.3, -7.07, -29.9, -36.9, -29, -36.6, -17, -7.48, -34.6, -37, -36.3, -60.8, -62.6, -34.2, -38.4, 8.43, -22.8, -24.2, -33.7, -28.7, -16.7, -12.3%"

# From PubChem BioAssay (NCI)
